The values that follow come from the RNAGym collection of RNA variant scans (doi:10.1093/nar/gkz1192).

The source gives no read counts; variants with many changes may rest on few reads.

Sequences and labels used below:
B1: CPEB3 Ribozyme (parent)
chain: UAACAGGGGGCCACAGCAGAAGCGUUCACGUCGCAGCCCCUGUCAGAUUCUGGUGAAUCUGCGAAUUCUGCUGUAUAUCUC

In the series the parent is B1. The series can be described thus: self-cleavage, relative activity (ratio to wild type); higher = more cleavage; in vitro, sequencing. The procedure, abridged: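 Barcoded CPEB3 ribozyme mutants, produced by rounds of error-prone PCR, self-cleaved while being transcribed with T7 RNA polymerase for 5 hours at 37°C and during a subsequent 15 min DNase I step before EDTA was added. Sequencing of template-switched cDNA on Illumina gave cleaved and total reads, and DNA sequencing assigned barcodes to variants. Each variant's relative activity is its cleaved/total read fraction divided by the unmutated ribozyme's fraction, averaged across three batches. A variant needed a minimum of 5 reads.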
Regarding A45G A56G U78C, the self-cleavage came out at 0.56. Take A45G A57U U58A A64G: the self-cleavage is 0.28.

Turning to A45G U49C A56G U78C, the self-cleavage is 0.87. Take A45G U51C A57C: the self-cleavage came to 0.13. Next, A45G U51C A57G: 0.48; U43C U49G U60A U69A: 0.12. Next, U43C U60G U76A: 0.1. With A45C U60A A64G U72C, the self-cleavage was found to be 0.23. As for U43C U48C U67G U78C, the self-cleavage came to 0.12. For U43C U69G U76C, the self-cleavage was found to be 0.3. As for U43C U72C A77G, the self-cleavage is 0.69. For the variant C44A U48C U67C U74C, the self-cleavage was 0.17. As to U43C U49C G53A, the self-cleavage was determined as 0.24. On to A45G C62A A64G, for which the self-cleavage was 0.26.

Turning to A45G U60A A65G A77U, the self-cleavage came out at 0.15. The figure for A45G G70C C79U is 0.33; for U43C U76C U78C it is 0.58.

Regarding C44G U51C G55A, the self-cleavage amounted to 0.19.

Turning to C44A A47C U49C, the self-cleavage amounted to 0.12. In the case of A45G A47G U69A, the self-cleavage is 0.23. As to A45C A56G A65U U80C, the self-cleavage was found to be 0.03. With A45G U51C A57G U72G, the self-cleavage is 0.51. A45G A65G U78C: the self-cleavage is 0.27. Consider U43C U58A U66C, for which the self-cleavage came out at 0.11. The figure for A45G U48C U51C is 0.37.

Consider A45G U54C U72G, for which the self-cleavage is 0.5. A45G U54C U72C: the self-cleavage came out at 1.03. For A45G U49C U69C U78C, the self-cleavage stood at 0.08. Regarding A45G U51C U60A A64G, the self-cleavage was 0.19. Take C44A U60G U78C: the self-cleavage stood at 0.14. U43C U51C U58A: the self-cleavage worked out at 0.17.

Take U43C U51C U58C: the self-cleavage came out at 0.18. The figure for A45G C50A U54C is 0.48. As for A45G A47G A56U U76C, the self-cleavage was 0.17. In the case of A45C U51C A77U C81U, the self-cleavage came to 0.3. With U43G U67C U69C, the self-cleavage is 0.04.

On to A45C A65G U66C U69A U80C, for which the self-cleavage was determined as 0.09.

Take A45G U49C C71A U78C: the self-cleavage worked out at 0.18. For the variant U43C U58C U78C, the self-cleavage stood at 0.26. As to U43C U54C C59A A64G, the self-cleavage is 0.08. With U43C U54C A57G A64G G70C, the self-cleavage turned out to be 0.17.

For A45C U48A C62U, the self-cleavage turned out to be 0.04.

Regarding A45G A57G U74C A75G, the self-cleavage amounted to 0.89. Next, U43C U49A U58C: 0.15; U43G U51A U80A: 0.17. In the case of U43C U48C U51C U69C U78C, the self-cleavage came to 0.21. With A45C U51C A56G U78A, the self-cleavage was found to be 0.07. U43C U51C C59U A64G U72A: the self-cleavage worked out at 0.16. Regarding A45C U48C U49A U78C, the self-cleavage came to 0.06. As to A45G U54C U80A, the self-cleavage came out at 1. Take A45G U48C A65G: the self-cleavage amounted to 0.33. As to U43C U54C U66C A77G, the self-cleavage came out at 0.12.

A45C U51C G52U U54C A64G: the self-cleavage came out at 0.1. A45G A47G A57G: the self-cleavage amounted to 0.43. For the variant A45G U48C A57G A65G, the self-cleavage was determined as 0.24. In the case of A45G U48C A75G U76A, the self-cleavage worked out at 0.12.

In the case of A45G A56U U80C C81U, the self-cleavage worked out at 0.42. Consider A45G U54C U58A U80A, for which the self-cleavage stood at 0.42. Take U43C U51A A64G U76G: the self-cleavage was determined as 0.45. For the variant A45C U66C U78A, the self-cleavage turned out to be 0.16. Turning to A45G U51A A57G C79G, the self-cleavage came out at 0.38. For the variant U43C U76A A77C, the self-cleavage was 0.37.

For C44G A47G U51C, the self-cleavage came to 0.22. For the variant A45G G46U A47C G63A U72A U78C, the self-cleavage was 0.08.

U43C U66C U80C: the self-cleavage was found to be 0.21. Regarding C44A A56G U78C, the self-cleavage is 0.27. As for U43G U49C U66C, the self-cleavage amounted to 0.08. On to A45G A47U U74C, for which the self-cleavage was found to be 0.47. The figure for U43G G46A U60C is 0.16. Take U43C U51C U66C: the self-cleavage came out at 0.45. As to A45G U49C U51A U69C, the self-cleavage was found to be 0.12. Take U43G A57G U72C U78C: the self-cleavage was 0.15. The figure for U43C U58A U76C is 0.17; for A45C A56U A75G it is 0.07. On to U43C U60C C79A, for which the self-cleavage came to 0.09. Regarding A45G U49G G55A, the self-cleavage stood at 0.21. Next, A45G A57G U58C U72G: 0.15; C44U U49A A56G U69A: 0.14; U43C U49C U67C: 0.13.

In the case of A45C U48C U67C U78C, the self-cleavage stood at 0.12.

Take U43C U54A A64G: the self-cleavage amounted to 0.54. For U43G U66C U78C, the self-cleavage turned out to be 0.13.

As for A45G C50U A64U U74C, the self-cleavage was found to be 0.33. Turning to A45G A57G U58A U72C, the self-cleavage amounted to 0.15. For the variant A45G A57C U58C G63A C71G, the self-cleavage turned out to be 0.1. In the case of A45C A57G C79U, the self-cleavage worked out at 0.38. Next, A45G U51G A77U: 0.66; A45G U49C C62U: 0.09; U43C U49A U72C U80A: 0.11. The figure for A45C A64G U69A is 0.13; for U43G A47G C71U U78C it is 0.06; for A45G U58C U60A it is 0.2. For U43C U54C U80C, the self-cleavage stood at 0.23. As for U43C U49A C71A, the self-cleavage was determined as 0.06. For the variant A45G A64G G73C U76A, the self-cleavage is 1.22. For the variant U43G G63A U66C, the self-cleavage is 0.27. Consider U43C U48C U49A, for which the self-cleavage amounted to 0.37. In the case of A45G A56U A65G, the self-cleavage is 0.28. With U43C U48C U54A U60A, the self-cleavage stood at 0.19. Next, A45G A47G U74C: 0.85; U43C U67C A77G: 0.4; U43G U51C U69C: 0.16. Consider U43C U49C A56C, for which the self-cleavage turned out to be 0.14.

Turning to U43C U49C A56G, the self-cleavage amounted to 0.44. U43G G63A A64C: the self-cleavage is 0.24. Consider A45G U51A A75U, for which the self-cleavage was determined as 0.55. Take U43G A56G U69A: the self-cleavage turned out to be 0.11.

Turning to A45G C59U U67A, the self-cleavage stood at 0.16. Turning to U43G A56G U78C, the self-cleavage came out at 0.37. In the case of A45G U60A U69C, the self-cleavage amounted to 0.33. Next, A45G A57U U66C A77U: 0.2; U43C U69C U72C: 0.22; A45G U54C U66A U76A A77G: 0.18. On to A45G U51G A64G, for which the self-cleavage came out at 0.69. Next, A45G U58C G63A C71G: 0.23; U43C U67C U72C: 0.13; U43C U67C U72G: 0.13. Turning to A45G G52C A56G U76C, the self-cleavage was 0.61. The figure for A45G C62A U72A is 0.25. Next, A45G A47G A56G G61A: 0.36; A45C A56U U60C U69C: 0.22; A45G A47U U67C: 0.13. For the variant U43C U54C A64U, the self-cleavage came to 0.62. Turning to U43C U48C U78A, the self-cleavage came to 0.17.

Regarding U43G U60A C71A U80C, the self-cleavage turned out to be 0.03. The figure for A45C A64G U80A is 0.29.

Take A45G G52U G61C U66C: the self-cleavage worked out at 0.17. In the case of A45G G63U A64G U72C U74C, the self-cleavage worked out at 0.6. As to A45C U48A G70A U72C, the self-cleavage turned out to be 0.18. The figure for U43C U51C C81U is 0.67; for A45G G46A U48A it is 0.23; for U43G U51C U80C it is 0.63. With A45C U48C U74C A75G, the self-cleavage was found to be 0.12. With A45G C50A U54C U67A, the self-cleavage was 0.12.

As for A45G U49A U66C A75G, the self-cleavage is 0.1. As to A45C U49A U72C, the self-cleavage was 0.31.

Turning to A45G G46C U48C U60A, the self-cleavage came to 0.17. Regarding A45G U54A U66C, the self-cleavage stood at 0.28. The figure for U43C U49C G52C is 0.31; for A45G U54A U60A U67C U72C it is 0.27; for A45G C62U U72C it is 0.39.

Take A45G U51C U67C C68U U69C: the self-cleavage is 0.24. With C44U U54C U72C, the self-cleavage came out at 0.39.

For the variant C44U U49C A56U, the self-cleavage was determined as 0.31.

With C44U U51C A65G U67C, the self-cleavage was determined as 0.13. Next, U43C U67C C71G: 0.14; A45G A47U U58G C62U: 0.19; A45G A56U U78A: 0.4. For U43C U69A U80C, the self-cleavage turned out to be 0.15.

Take U43C U54C A75G: the self-cleavage came to 0.25. As for U43C U49C U80A, the self-cleavage is 0.4. Take A45G G52A U78A: the self-cleavage was 1.13. The figure for A45G G63U U78C is 0.85; for U43G A47G U48C A57U U72A it is 0.07; for U43G A47G U74A U78C it is 0.47. The figure for A45G U48A U54A A56G U78C is 0.07; for A45G U51A U72C it is 1.12. For the variant A45G G52U U72A, the self-cleavage is 0.63. U43G C59U C81A: the self-cleavage was found to be 0.16. Regarding A45G U60A A75G, the self-cleavage came to 0.33. The figure for U43C U66C U72G is 0.15; for A45G U54C U58C U72C A77G it is 0.2.

Turning to U43C U48C U54A A64G, the self-cleavage stood at 0.08. The figure for A45G U58G A64G is 0.37.

A45G U48C U58A U60C U72G U76A: the self-cleavage amounted to 0.03. For the variant C44U U51C A64C U66A U72C, the self-cleavage is 0.18. For U43C U54A A65G U72A, the self-cleavage is 0.2.
